Assay results taken from FireProtDB (doi:10.1021/bi9927742).

Conditions: Homo sapiens, pH 6.6, DSC, GuHCl/ADA 0.7 M, reversible: yes

## Fibroblast growth factor 1 wild type (chain not printed)
25 °C, GdnHCl
  unfolding free energy: 4.97 kcal/mol
Thermal
  unfolding enthalpy (calorimetric): 61.5 kcal/mol
